# In PMC10163920 (European journal of cell biology, 2022):
# B1: profilin-1 A20T (ALS-associated variant) (natural protein)
# chain: not shown
# B2: profilin-1 E117G (ALS-associated variant) (natural protein)
# chain: not shown
# B3: profilin-1 G118V (ALS-associated variant) (natural protein)
# chain: not shown
# B4: profilin-1 H120E (actin-binding impaired control) (natural protein)
# chain: not shown
# B5: profilin-1 M114T (ALS-associated variant) (natural protein)
# chain: not shown
# B6: profilin-1 Q139L (ALS-associated variant) (natural protein)
# chain: not shown
# B7: profilin-1 R136W (ALS-associated variant) (natural protein)
# chain: not shown
# B8: profilin-1 T109M (ALS-associated variant) (natural protein)
# chain: not shown
# Biological target: Rabbit skeletal muscle actin (unlabeled actin monomers) (rabbit, UniProt P68135)
# Test: fluorescence polarisation
Kd,binding result,Binder
148 ± 16.6 nM,–,B1
113 ± 16.5 nM,–,B2
1200 ± 311 nM,–,B3
6720 ± 5420 nM,–,B4
–,binds,B5
77.9 ± 4.9 nM,–,B6
825 ± 17.6 nM,–,B7
204 ± 33.4 nM,–,B8
